# A collection of fitness landscapes (doi:10.1016/j.celrep.2020.107928)
# Whole data set: some 81,000 sequences, median “one-hybrid fitness for binding NBS DNA” near -0.1, cut for the highest 2% near 0.36. This is one part of the list.
# B1: Caulobacter ParB omega fusion; a variant is named by its letters at X, in order, B8GW30 (parent)
# chain: MESVVVGEPGMSEGRRGLGRGLSALLGEVDAAPAQAPGEQLGGSREAPIEILQRNPDQPRRTFREEDLEDLSNSIREKGVLQPILVRPSPDTAGEYQIVAGERAWRAAQRAGLKTVPIMVRELDDLAVLEIGIIENVQRADLNVLEEALSYKVLMEKFERTQENIAQTIGKSXSHVANXMRLLXLPDEVQSYLVSGELTAXHARAIAAAADPVALAKQIIEGGLSVRETEALARKAPNLSAGKSKGGRPPRVKDTDTQALESDLSSVLGLDVSIDHRGSTGTLTITYATLEQLDDLCNRLTRGI
# Variants of: B1
# Test: one-hybrid fitness for binding NBS DNA (the Noc-binding site; scaled: cognate 1, non-cognate 0); higher = stronger binding
# Details: with NBS DNA site
# How it was run: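 Fitness is the rescaled log change in variant-to-wild-type read ratio, measured by Illumina sequencing of plasmids before and after bacterial one-hybrid selection. The scale puts cognate at 1 and non-cognate at 0. Selection of Caulobacter ParB libraries, four specificity codons randomised, took place in E. coli USO with a HIS3 reporter, site 19 bp from the promoter, over 48 hours at 37°C on M9-minus-histidine with 0.1 mM IPTG and 5 mM 3-AT.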
row,Variant,one-hybrid fitness for binding NBS DNA
1,PCWS,≤ 0.2
2,FGDS,≤ 0.2
3,NYQS,≤ 0.2
4,TYTM,≤ 0.2
5,FRMT,≤ 0.2
6,NHLD,≤ 0.2
7,QLKH,0.487
8,AAMW,≤ 0.2
9,QNGG,≤ 0.2
10,HLIT,≤ 0.2
11,TQTM,≤ 0.2
12,QGWV,≤ 0.2
13,PMVK,≤ 0.2
14,RSCF,≤ 0.2
15,ERKG,≤ 0.2
16,VYHV,≤ 0.2
17,VHMM,≤ 0.2
18,AGST,≤ 0.2
19,IADM,≤ 0.2
20,KDSM,≤ 0.2
21,NSKF,≤ 0.2
22,QMSK,≤ 0.2
23,TTNK,≤ 0.2
24,FSGG,≤ 0.2

row,Variant,one-hybrid fitness for binding NBS DNA
1,PWMC,≤ 0.2
2,HAHG,≤ 0.2
3,RARS,0.564
4,LNTH,≤ 0.2
5,ALFR,≤ 0.2
6,IKRR,0.207
7,FCRL,≤ 0.2
8,TCKY,≤ 0.2
9,LGKR,≤ 0.2
10,TKLC,≤ 0.2
11,KENY,≤ 0.2
12,FNSR,≤ 0.2
13,FKKA,≤ 0.2
14,NMRG,≤ 0.2
15,PMCL,≤ 0.2
16,GSSH,≤ 0.2
17,TVTS,≤ 0.2
18,TRGC,≤ 0.2
19,GMCR,≤ 0.2
20,DRVW,≤ 0.2
21,QIWW,≤ 0.2
22,NHMR,≤ 0.2
23,RLKM,≤ 0.2
24,CVFR,≤ 0.2

row,Variant,one-hybrid fitness for binding NBS DNA
1,SCRY,≤ 0.2
2,QFFR,0.439
3,SMQN,≤ 0.2
4,VRHW,≤ 0.2
5,WQTP,≤ 0.2
6,FCMC,≤ 0.2
7,RLQV,≤ 0.2
8,GYHF,≤ 0.2
9,WDTS,≤ 0.2
10,SQEY,≤ 0.2
11,PLQL,≤ 0.2
12,CVNC,≤ 0.2
13,SLPD,≤ 0.2
14,MIWG,≤ 0.2
15,GDSP,≤ 0.2
16,YCDY,≤ 0.2
17,TQQI,≤ 0.2
18,IQML,≤ 0.2
19,HCIS,≤ 0.2
20,QHQC,≤ 0.2
21,RSRP,≤ 0.2
22,VTCT,≤ 0.2
23,KSHE,≤ 0.2
24,RSRA,0.317

row,Variant,one-hybrid fitness for binding NBS DNA
1,MLEF,≤ 0.2
2,PCGH,≤ 0.2
3,SSQI,≤ 0.2
4,HAQS,≤ 0.2
5,KTRI,≤ 0.2
6,IRME,≤ 0.2
7,ANKL,≤ 0.2
8,YAEG,≤ 0.2
9,LGML,≤ 0.2
10,QAYY,≤ 0.2
11,VDHL,≤ 0.2
12,NADS,≤ 0.2
13,RYTE,≤ 0.2
14,TCMR,≤ 0.2
15,CRTN,≤ 0.2
16,WARC,≤ 0.2
17,HRKW,≤ 0.2
18,LGTA,≤ 0.2
19,YLIS,≤ 0.2
20,MDRP,≤ 0.2
21,RYDE,≤ 0.2
22,AVYS,≤ 0.2
23,SIVG,≤ 0.2
24,QGFT,≤ 0.2

row,Variant,one-hybrid fitness for binding NBS DNA
1,GFNS,≤ 0.2
2,RDAF,≤ 0.2
3,QDWV,≤ 0.2
4,PIYR,≤ 0.2
5,QFTQ,≤ 0.2
6,EMYL,≤ 0.2
7,ANNG,≤ 0.2
8,NRVQ,≤ 0.2
9,QIDH,≤ 0.2
10,MITP,≤ 0.2
11,IYHT,≤ 0.2
12,EEQR,≤ 0.2
13,KVNY,≤ 0.2
14,HYHS,≤ 0.2
15,HQIN,≤ 0.2
16,HHWC,≤ 0.2
17,VGNC,≤ 0.2
18,NGRL,≤ 0.2
19,QYVG,≤ 0.2
20,DTTY,≤ 0.2
21,NVAS,≤ 0.2
22,KQEN,≤ 0.2
23,AVLY,≤ 0.2
24,ESWE,≤ 0.2

row,Variant,one-hybrid fitness for binding NBS DNA
1,STNG,≤ 0.2
2,WDEG,≤ 0.2
3,DTSK,≤ 0.2
4,QHQF,≤ 0.2
5,HMDG,≤ 0.2
6,WFTS,≤ 0.2
7,AVMG,≤ 0.2
8,TNIM,≤ 0.2
9,QTGW,≤ 0.2
10,LHRF,≤ 0.2
11,EGCS,≤ 0.2
12,SREP,≤ 0.2
13,DHRI,≤ 0.2
14,IHVW,≤ 0.2
15,RCHF,≤ 0.2
16,TGNS,≤ 0.2
17,IQLT,≤ 0.2
18,TLST,≤ 0.2
19,LHLI,≤ 0.2
20,PGNA,≤ 0.2
21,DSRV,≤ 0.2
22,RCLF,≤ 0.2
23,LNNC,≤ 0.2
24,MKYK,≤ 0.2

row,Variant,one-hybrid fitness for binding NBS DNA
1,EYDV,≤ 0.2
2,HLMG,≤ 0.2
3,HAAN,≤ 0.2
4,FHAC,≤ 0.2
5,HFCC,≤ 0.2
6,CWPL,≤ 0.2
7,QRAQ,0.412
8,AIIT,≤ 0.2
9,QLHW,≤ 0.2
10,TYAI,≤ 0.2
11,TVMG,≤ 0.2
12,QKEM,≤ 0.2
13,NLNC,≤ 0.2
14,VSCS,≤ 0.2
15,QITE,≤ 0.2
16,NPPY,≤ 0.2
17,ELPF,≤ 0.2
18,LGYR,≤ 0.2
19,QGWD,≤ 0.2
20,VNQT,≤ 0.2
21,RVCW,≤ 0.2
22,RDSY,≤ 0.2
23,NFKP,≤ 0.2
24,WKTS,≤ 0.2

row,Variant,one-hybrid fitness for binding NBS DNA
1,RNEV,0.385
2,ICAG,≤ 0.2
3,AWKV,≤ 0.2
4,QQLN,≤ 0.2
5,IKRV,≤ 0.2
6,TADV,≤ 0.2
7,KLPG,≤ 0.2
8,RQIC,≤ 0.2
9,DGNT,≤ 0.2
10,VRWT,≤ 0.2
11,EARM,≤ 0.2
12,RQWD,≤ 0.2
13,EVST,≤ 0.2
14,QVMT,0.228
15,DSVS,≤ 0.2
16,TDNY,≤ 0.2
17,KFHC,≤ 0.2
18,CYRV,≤ 0.2
19,CGFT,≤ 0.2
20,YWPL,≤ 0.2
21,TASM,≤ 0.2
22,NPFD,≤ 0.2
23,PPAL,≤ 0.2
24,GIVL,≤ 0.2

row,Variant,one-hybrid fitness for binding NBS DNA
1,CILD,≤ 0.2
2,WSFC,≤ 0.2
3,EPHR,≤ 0.2
4,QGTI,≤ 0.2
5,HTHC,≤ 0.2
6,PGEL,≤ 0.2
7,TVVC,≤ 0.2
8,HSAY,≤ 0.2
9,FYDL,≤ 0.2
10,KLVD,≤ 0.2
11,HSGI,≤ 0.2
12,DAPV,≤ 0.2
13,DPKD,≤ 0.2
14,RGIS,≤ 0.2
15,IHYV,≤ 0.2
16,FDLS,≤ 0.2
17,CNFF,≤ 0.2
18,PPTK,≤ 0.2
19,QFAR,≤ 0.2
20,CINV,≤ 0.2
21,LYSC,≤ 0.2
22,RTVI,≤ 0.2
23,TCRR,0.333
24,LPND,≤ 0.2

row,Variant,one-hybrid fitness for binding NBS DNA
1,LVFY,≤ 0.2
2,RNDI,≤ 0.2
3,MTRV,≤ 0.2
4,SKVG,≤ 0.2
5,TTPY,≤ 0.2
6,CEAS,≤ 0.2
7,LSYH,≤ 0.2
8,GMRG,≤ 0.2
9,VAQS,≤ 0.2
10,WLNV,≤ 0.2
11,RFMH,≤ 0.2
12,KQNV,≤ 0.2
13,SHFV,≤ 0.2
14,ATLK,≤ 0.2
15,PRGI,≤ 0.2
16,AHYC,≤ 0.2
17,MMRR,≤ 0.2
18,PTAH,≤ 0.2
19,THQD,≤ 0.2
20,WKPS,≤ 0.2
21,LYFG,≤ 0.2
22,SVVK,≤ 0.2
23,TAAS,≤ 0.2
24,ETLC,≤ 0.2

row,Variant,one-hybrid fitness for binding NBS DNA
1,NYLG,≤ 0.2
2,EKQI,≤ 0.2
3,PIMS,≤ 0.2
4,DKAG,≤ 0.2
5,TPTW,≤ 0.2
6,LVGG,≤ 0.2
7,YFSA,≤ 0.2
8,LHMN,≤ 0.2
9,CGPF,≤ 0.2
10,NDSG,≤ 0.2
11,RRRK,0.41
12,WRET,≤ 0.2
13,CLHH,≤ 0.2
14,RMAK,≤ 0.2
15,VCAR,≤ 0.2
16,TNHT,≤ 0.2
17,TILF,≤ 0.2
18,SQYQ,≤ 0.2
19,SLCD,≤ 0.2
20,NTFR,≤ 0.2
21,GETI,≤ 0.2
22,PRTY,≤ 0.2
23,TRSY,≤ 0.2
24,YWRY,≤ 0.2

row,Variant,one-hybrid fitness for binding NBS DNA
1,PPVM,≤ 0.2
2,MAYG,≤ 0.2
3,ILEG,≤ 0.2
4,RYPY,≤ 0.2
5,MWST,≤ 0.2
6,WSKY,≤ 0.2
7,HETC,≤ 0.2
8,PRNL,≤ 0.2
9,YEHT,≤ 0.2
10,NALT,≤ 0.2
11,GDCS,≤ 0.2
12,PRDC,≤ 0.2
13,LIDI,≤ 0.2
14,SAQA,≤ 0.2
15,PWES,≤ 0.2
16,AVVA,≤ 0.2
17,KCAD,≤ 0.2
18,VHYM,≤ 0.2
19,KRAL,≤ 0.2
20,IIDT,≤ 0.2
21,LQPW,≤ 0.2
22,PLVN,≤ 0.2
23,NVFD,≤ 0.2
24,PTGF,≤ 0.2

row,Variant,one-hybrid fitness for binding NBS DNA
1,LELK,≤ 0.2
2,QAEL,≤ 0.2
3,QMYF,≤ 0.2
4,HTIR,≤ 0.2
5,VGGV,≤ 0.2
6,GTPL,≤ 0.2
7,AQRN,≤ 0.2
8,MMYS,≤ 0.2
9,YAHE,≤ 0.2
10,GQSI,≤ 0.2
11,NCLR,≤ 0.2
12,GFPY,≤ 0.2
13,SILG,≤ 0.2
14,KLDR,≤ 0.2
15,NRLW,≤ 0.2
16,KFVN,≤ 0.2
17,AKHP,≤ 0.2
18,LFAM,≤ 0.2
